Hit rate of the full screen: of about 310,000 compounds, about 14,000 (4.5%) showed an effect of 50% or more. Effects have a minus sign here. The list shows a part of the results.
molecular target: human ether-à-go-go-related gene (hERG) potassium channel (human, UniProt Q12809); assay: primary screen, population patch clamp on CHO cells stably expressing hERG
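Further: peak tail current of the secondary pulse compared with the same well before compound.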

Chain of human ether-à-go-go-related gene (hERG) potassium channel (Q12809 whole entry, looked up): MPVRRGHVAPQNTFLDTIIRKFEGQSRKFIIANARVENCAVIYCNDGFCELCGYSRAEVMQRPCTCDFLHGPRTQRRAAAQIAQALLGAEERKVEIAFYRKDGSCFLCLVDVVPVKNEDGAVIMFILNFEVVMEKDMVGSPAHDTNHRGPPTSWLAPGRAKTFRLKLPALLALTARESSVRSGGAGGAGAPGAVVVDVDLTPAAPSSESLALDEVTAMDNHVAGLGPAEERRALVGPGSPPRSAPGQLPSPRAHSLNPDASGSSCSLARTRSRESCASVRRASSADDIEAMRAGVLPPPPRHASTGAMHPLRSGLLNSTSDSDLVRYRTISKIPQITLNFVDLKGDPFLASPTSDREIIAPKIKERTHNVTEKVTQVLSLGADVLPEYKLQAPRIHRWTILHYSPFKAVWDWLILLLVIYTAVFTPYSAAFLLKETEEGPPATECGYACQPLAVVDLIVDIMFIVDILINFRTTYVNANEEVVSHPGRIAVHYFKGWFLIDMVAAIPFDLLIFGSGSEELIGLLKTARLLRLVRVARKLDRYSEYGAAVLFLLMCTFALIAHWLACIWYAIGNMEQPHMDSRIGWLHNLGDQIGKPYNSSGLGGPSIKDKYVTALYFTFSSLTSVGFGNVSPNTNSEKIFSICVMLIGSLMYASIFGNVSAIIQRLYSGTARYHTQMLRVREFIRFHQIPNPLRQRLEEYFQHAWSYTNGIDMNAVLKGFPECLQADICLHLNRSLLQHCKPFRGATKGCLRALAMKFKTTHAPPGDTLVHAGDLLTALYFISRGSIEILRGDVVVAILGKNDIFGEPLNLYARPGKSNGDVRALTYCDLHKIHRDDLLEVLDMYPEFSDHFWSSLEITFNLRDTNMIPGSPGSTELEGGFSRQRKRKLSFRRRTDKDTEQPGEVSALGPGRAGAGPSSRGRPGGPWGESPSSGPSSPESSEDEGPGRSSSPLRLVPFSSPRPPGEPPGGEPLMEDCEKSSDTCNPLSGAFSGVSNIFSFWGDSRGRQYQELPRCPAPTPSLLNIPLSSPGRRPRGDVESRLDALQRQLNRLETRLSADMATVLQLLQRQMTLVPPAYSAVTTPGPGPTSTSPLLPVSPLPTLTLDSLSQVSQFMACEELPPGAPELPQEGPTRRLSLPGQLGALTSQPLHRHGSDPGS

Row | Compound | hERG current change (%, negative = inhibition) at 10uM [%]
1 | COc1ccc(/C=C2/Sc3ccc(C(=O)NCCN4CCCCCC4)cc3NC2=O)cc1 | 1.31
2 | CC(/C=N\NC(=O)c1cc(C)oc1C)=C\c1ccccc1 | 19.5
3 | COc1ccc(OCc2cc(C(=O)N(Cc3nccn3C)C(C)C)no2)c2ccccc12 | -43.7
4 | O=C(CN1CCN(c2ccccc2O)CC1)NCCCc1ccccc1 | -2.06
5 | Cn1nc(C(F)(F)F)c2cc(C(=O)NC3CC3)sc21 | 6.25
6 | CCOc1ccc(C2C(C(=O)Nc3ccccc3)=C(C)N=c3s/c(=C/c4cccc(OCC(=O)O)c4)c(=O)n32)cc1 (stereo not shown) | 0.647
7 | CC(C)(C)c1ccc(O)c(CN2CCN(c3ccccc3)CC2)c1 | 13.6
8 | O=C1c2ccccc2NC(c2ccc(O)cc2)N1Cc1ccco1 (stereo not shown) | -24.3
9 | COCCN(Cc1cc2ccc(C)c(C)c2nc1Cl)C(=O)N1CCOCC1 | -11
10 | CN(Cc1ccccc1)C(=O)CNC(=O)C12CC3CC(CC(C3)C1)C2 | -16.3
11 | NS(=O)(=O)c1ccc(CCNC(=O)/C=C/c2cccc([N+](=O)[O-])c2)cc1 | -13.7
12 | CCOC(=O)C1=C(C)NC(=O)NC1c1ccc(OCC(N)=O)cc1 (stereo not shown) | -0.605
13 | CC1(CCc2ccccc2)NC(=O)N(CC(=O)N2CCCCCC2)C1=O (stereo not shown) | -2.67
14 | CS(=O)(=O)c1ccc(Cl)c(NC(=O)COC(=O)c2ncc(Cl)c(Cl)c2Cl)c1 | -21.3
15 | CN(Cc1ccnc2ccccc12)C(=O)C1CCC(=O)N(Cc2ccccc2F)C1 (stereo not shown) | -43.1
16 | O=C1C[C@@H](c2ccc(O)cc2)Oc2cc(O)cc(O)c21 | -2.14
17 | CCn1cc(C(=O)NCCO)c(=O)c2cc(F)c(N3CCN(C)CC3)cc21.Cl | 1.03
18 | COC(=O)Cc1ccc(OCC(=O)Nc2ccc(OC(F)(F)F)cc2)cc1 | -0.104
19 | COc1ccc(C2=NN(C(=O)CSc3nc(=O)n4cccc(C)c4n3)C(c3ccc(C)cc3)C2)cc1 (stereo not shown) | 4.53
20 | Cc1ccc2cccc(N=Cc3c(C)[nH]n(-c4ccccc4)c3=O)c2n1 | 5.75
21 | Cc1ccc(N2C(=O)[C@@H]3[C@H](C2=O)[C@H]2C=C(C(=O)c4ccccc4)C=CN2[C@@H]3C(=O)c2ccc(Cl)cc2)cc1 | 11.2
22 | O=C(Nc1ccccc1)c1ccccc1NC(=O)C1CCCCC1 | 8.74

Row | Compound | hERG current change (%, negative = inhibition) at 10uM [%]
23 | O=C(O)c1cc2cc(Cl)ccc2oc1=O | 1.71
24 | COC(=O)Nc1ncc(CN2CCc3ccccc3C2)s1 | -43
25 | Cc1c(Cl)c([N+](=O)[O-])nn1CC(=O)NC(C)C1CC2CCC1C2 (stereo not shown) | -12.9
26 | O=C(Nc1ccccc1)C1CC(=O)n2c(nc3ccccc32)N1 (stereo not shown) | 2.29
27 | COc1ccc(/C=N/NC(=S)Nc2ccccc2)cc1COc1ccccc1F | -1.62
28 | COc1cc(Cl)c(C)cc1NC(=O)CNC(=O)Cn1cnc2ccccc2c1=O | -4.59
29 | CC(C)(C)NC(=S)NC(=O)C12CC3CCC(CC(C3)C1)C2 | 11.5
30 | COc1ccccc1NC(=O)c1ccc(NC(=O)c2nc3nccc(C)n3n2)cc1 | -6.83
31 | Nn1cnnc1SCC(=O)Nc1ccc2c(c1)OCO2 | 2.24
32 | CCCC(=O)Nc1ccc(-c2cnc(-c3ccc(NC(=O)CCC)cc3)nc2)cc1 | 7.97
33 | CCOc1ccc(C(C)=O)cc1CN1c2ccc(S(N)(=O)=O)cc2CC1C (stereo not shown) | 17.9
34 | O=C(CSc1nnc(-c2ccccc2)o1)Nn1cnnc1 | -2.82
35 | CCOC(=O)c1cnc2c(-c3ccccc3)cnn2c1N | 9.38
36 | CC(=O)C1C(c2ccc(Cl)cc2)NC(=O)NC1(O)C(F)(F)F (stereo not shown) | 18.5
37 | CCC(ONc1ccccc1C(F)(F)F)(C(=O)NN(C)C)c1ccccc1 (stereo not shown) | -1.27
38 | CCOc1ccc(N(C(=O)c2cnsn2)C(C(=O)NC2CCCCC2)c2ccncc2)cc1 (stereo not shown) | -69.4
39 | O=C(OCc1cc(-c2ccccc2)no1)c1ccc2ccccc2n1 | 12.2
40 | COc1ccc(OC)c(C2C(C(N)=O)=C(C)Nc3nc(CCCO)nn32)c1 (stereo not shown) | 14.8
41 | Cc1cc(C)n(CC(=O)Nc2ccc([N+](=O)[O-])cc2)n1 | 17.7
42 | O=[N+]([O-])/C=C/c1c(OCc2ccccc2)ccc2ccccc12 | -1.12
43 | Cc1cc(=O)oc(C)c1C(=O)NCC(C)NC(=O)c1c(C)cc(=O)oc1C (stereo not shown) | 5.83
44 | C=CCOC(=O)C1=C(C)Nc2nnnn2C1c1cccs1 (stereo not shown) | -1.74

Row | Compound | hERG current change (%, negative = inhibition) at 10uM [%]
45 | CC(=O)c1cccc(NC(=O)C2=CC(c3ccco3)=NS(=O)(=O)N2C)c1 | 5.29
46 | CC(=O)NCCc1cc2cc(C)c(C)cc2[nH]c1=O | 10.6
47 | O=C(NCc1ccc(F)cc1)C1CCCN(S(=O)(=O)c2ccc(-n3cnnn3)cc2)C1 (stereo not shown) | 19.3
48 | CN(c1ccccc1)c1nc(N)c([N+](=O)[O-])c(N2CCCCC2)n1 | -15.6
49 | Cc1n[nH]c(C)c1Sc1ccccc1[N+](=O)[O-] | -5.07
50 | CC(C)=CC[N+]1(C)CCCCC1.[Br-] | 13.5
51 | CCC(C)OC(=O)c1[nH]c2c(c1C)C(=O)CC(c1ccc(N(C)C)cc1)C2 (stereo not shown) | 0.609
52 | CCC(C)NC(=O)C1CCN(S(=O)(=O)c2ccc3[nH]c(=O)ccc3c2)CC1 (stereo not shown) | 5.87
53 | COc1ccc(-c2nnc(SCC(=O)N3CCOCC3)o2)cc1OC | -0.537
54 | Cc1ccc(S(=O)(=O)Nc2c(C)n(C)n(-c3ccccc3)c2=O)cc1C(=O)NCc1ccccn1 | 14.7
55 | COCCn1c(SCC(=O)Nc2ccccc2F)nc2c(c1=O)SCC2 | -12.3
56 | COc1ccc(C(=O)Nc2sc3c(c2C#N)CCN(C(C)=O)C3)cc1 | -21
57 | CCN(CC)CCCNC(=O)CSc1nc2c(c(C(F)(F)F)n1)CCc1ccccc1-2 | -52.2
58 | O=C(CN1C(=O)CCC1=O)Nc1ccc(Cc2ccc(NC(=O)CN3C(=O)CCC3=O)cc2)cc1 | 29
59 | COCCNC(=O)C(OC(=O)CC1Sc2ccccc2NC1=O)c1ccccc1 (stereo not shown) | -5.27
60 | COc1ccc(/C=C/C(=O)NC2CCS(=O)(=O)C2)cc1 (stereo not shown) | 10.5
61 | CCCNC(=O)Nc1cccc(C(=O)OC)c1 | -3.04
62 | CCOC(=O)N(CC)OC(=O)Nc1ccc(Cl)cc1 | -10.1
63 | COc1ccc(N2CCN(C(=O)c3ccc(Cl)c(S(=O)(=O)N4CCCC4)c3)CC2)cc1 | -31.6
64 | CN(Cc1nc2ccccc2c(=O)[nH]1)C(=O)c1cccc(S(=O)(=O)N2CCCCCC2)c1 | -26.1
65 | CC1=C(C(=O)NCc2ccc3c(c2)OCO3)C2(CCC(C)CC2)OC1=O (stereo not shown) | -17.8
66 | CCOC(=O)C1C(=O)CC(C)(O)C(C(=O)OCC)C1c1ccccc1 (stereo not shown) | -13.1

Row | Compound | hERG current change (%, negative = inhibition) at 10uM [%]
67 | Cc1ccc(NC(=O)CN(C)S(=O)(=O)c2cccs2)cc1F | -2.2
68 | O=c1cc(-c2ccccc2)nc(Sc2ccc([N+](=O)[O-])cc2[N+](=O)[O-])[nH]1 | 17.3
69 | O=C(NCc1cccc(Cl)c1)c1ccc2c(c1)OCO2 | 0.973
70 | O=C(CCS(=O)(=O)c1ccc(Br)cc1)NCCC1=CCCCC1 | 9.16
71 | Cc1ccc(Cl)cc1N1CCN(CC(=O)NC2CCCc3ccccc32)CC1 (stereo not shown) | 2.75
72 | CCCCCC1CC(CC(=O)Nc2nncs2)C(=O)O1 (stereo not shown) | -8.91
73 | N#C/C(=C(/O)COC(=O)c1ccc(C#N)cc1)c1nc2ccccc2s1 | -1.4
74 | CC(C)CC(=O)NC(NC(=S)Nc1sc2c(c1C#N)CCCC2)C(Cl)(Cl)Cl (stereo not shown) | 21.8
75 | COCCCNC(=O)c1ccc2c(c1)ncn2-c1ccccc1OC | -1.73
76 | CCOC(=O)C1=C(C)N(CCCCCC(=O)O)C(=O)NC1c1ccccc1Cl (stereo not shown) | -11.1
77 | COc1ccc(CN2C(=O)N(c3ccc(OC)cc3)C(=O)C2CC(=O)Nc2ccccc2)cc1 (stereo not shown) | 12.6
78 | COc1ccc(C2SCC(=O)N2c2ccc(F)cc2)cc1 (stereo not shown) | 20.8
79 | CCCCC(C(=O)O)C(C)CC(=O)Nc1cccc(C(=O)O)c1 (stereo not shown) | 8.68
80 | CCOc1ccc(S(=O)(=O)N2CCN(Cc3ccc4c(c3)OCO4)CC2)cc1C | -13
81 | CCCCOC(=O)c1ccc(NC(=O)c2cc(Cl)c(Cl)cc2C(=O)O)cc1 | 10.4
82 | COc1ccccc1CNC(=O)C1CCCN(S(=O)(=O)c2cccc3nonc23)C1 (stereo not shown) | -5.13
83 | COc1ccccc1CNC(=O)c1c(-c2ccccc2Cl)noc1C | -4.95
84 | O=C(O)c1nc(-c2ccccc2)n(-c2cccc(C(F)(F)F)c2)n1 | 3.49
85 | Cc1ccc(C2=NC(C(F)(F)F)(C(F)(F)F)c3c(n(-c4ccc(F)cc4)c(=O)[nH]c3=O)N2)cc1 | -16.6
